In PMC4336329 (PLoS ONE, 2015):
Screen size: about 310,000 compounds; about 14,000 (4.5%) showed an effect of 50% or more. Effects have a minus sign here. Some of the results follow.

Target: human ether-à-go-go-related gene (hERG) potassium channel (human, UniProt Q12809)
Assay: primary screen, population patch clamp on CHO cells stably expressing hERG
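Note: peak tail current of the secondary pulse compared with the same well before compound.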

Sequence of human ether-à-go-go-related gene (hERG) potassium channel (Q12809 whole entry, looked up): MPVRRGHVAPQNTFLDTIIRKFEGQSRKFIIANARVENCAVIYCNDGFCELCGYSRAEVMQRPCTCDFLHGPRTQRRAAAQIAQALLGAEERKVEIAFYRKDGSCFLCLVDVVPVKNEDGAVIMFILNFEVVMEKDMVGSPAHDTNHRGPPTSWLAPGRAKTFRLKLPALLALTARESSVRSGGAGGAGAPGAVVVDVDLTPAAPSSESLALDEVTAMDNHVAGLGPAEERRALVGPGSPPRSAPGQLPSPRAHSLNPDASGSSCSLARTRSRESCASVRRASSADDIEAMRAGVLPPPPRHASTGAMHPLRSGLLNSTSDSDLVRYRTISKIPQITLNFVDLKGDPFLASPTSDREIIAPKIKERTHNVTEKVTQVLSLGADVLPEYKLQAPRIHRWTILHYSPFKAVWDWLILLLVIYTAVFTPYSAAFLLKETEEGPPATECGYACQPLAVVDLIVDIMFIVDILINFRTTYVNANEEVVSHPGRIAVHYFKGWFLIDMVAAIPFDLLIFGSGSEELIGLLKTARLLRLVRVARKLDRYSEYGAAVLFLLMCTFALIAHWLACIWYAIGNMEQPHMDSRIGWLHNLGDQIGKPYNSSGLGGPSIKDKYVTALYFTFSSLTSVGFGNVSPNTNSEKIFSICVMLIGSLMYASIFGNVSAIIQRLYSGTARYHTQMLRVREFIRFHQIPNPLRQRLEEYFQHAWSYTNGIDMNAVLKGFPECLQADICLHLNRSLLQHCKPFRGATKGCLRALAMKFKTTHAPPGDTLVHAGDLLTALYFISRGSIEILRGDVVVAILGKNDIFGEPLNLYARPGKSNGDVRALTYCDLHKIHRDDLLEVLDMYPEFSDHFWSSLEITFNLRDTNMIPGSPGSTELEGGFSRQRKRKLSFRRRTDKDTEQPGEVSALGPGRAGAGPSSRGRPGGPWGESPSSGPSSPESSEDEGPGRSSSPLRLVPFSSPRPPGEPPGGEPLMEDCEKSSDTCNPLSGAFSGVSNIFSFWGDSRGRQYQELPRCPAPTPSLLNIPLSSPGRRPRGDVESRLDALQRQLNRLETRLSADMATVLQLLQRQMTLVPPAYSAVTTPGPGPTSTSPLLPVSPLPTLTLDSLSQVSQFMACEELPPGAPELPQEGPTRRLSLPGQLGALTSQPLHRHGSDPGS

SMILES | hERG current change (%, negative = inhibition) at 10uM
Cc1cccc(NC(=O)c2ccc(S(=O)(=O)N3CCCCC3)cc2)c1 | -21.7%
CC1CCN(C(=O)c2ccc(-n3cnnn3)cc2)CC1 | -72.1%
Cc1cccc(NC(=O)CSCc2cc(=O)n3c(C)csc3n2)c1C | -7.86%
O=C(NCCc1ccccc1)c1ccc2nc(-c3ccco3)c(-c3ccco3)nc2c1 | -22.3%
Fc1ccc(CSc2nc3ccccc3[nH]2)c2ccccc12 | 11.8%
COc1cc(C(=O)OCCCN2CCOCC2)ccc1O | 9.6%
C/C(Cc1ccccc1)=N\NC(=O)c1cccnc1 | 8.64%
CC[C@H](C)[C@@H]1NC(=O)c2cc([N+](=O)[O-])cc(I)c2SC[C@@H](C(N)=O)NC(=O)[C@H](CCCCN)NC1=O | -31.3%
CC(C)(C)C(=O)COC(=O)c1cc2ccccc2cc1O | 6.28%
CC(=O)N1CCN(CC(=O)Nc2c(Cl)ccc(C)c2Cl)CC1 | 9.04%
O=C1NCCCC1C(=O)N1CCCCC1 (centres unmarked) | 14.2%
COc1cc(/C=N/n2cnnc2)ccc1OC(=O)N(C)C | 10.5%
O=S1(=O)CCOCCN1Cc1ccc(Cl)cc1Cl | -13.5%
CC(C(=O)NCC1(c2ccccc2)CCCC1)N1CCOCC1 (centres unmarked) | -4.1%
CC(=O)NC(C(=O)c1ccccc1)C(=O)c1ccccc1 | 6.45%
CCc1ccc(NC(=O)CCc2nnc3ccc(N4CCCC4)nn23)cc1 | 4.01%
O=S(=O)(Nc1ccccc1Cl)c1ccc2[nH]c(=S)oc2c1 | 17.8%
C/C(=N\NC(=O)C(C)Nc1cccc(Cl)c1)c1ccc([N+](=O)[O-])cc1 (centres unmarked) | -50.5%
COC(=O)c1cc(OC)c(OC)cc1NC(=O)C(C)c1ccc([N+](=O)[O-])cc1 (centres unmarked) | -15.7%
CCn1c(=NC(=O)CCS(=O)(=O)c2ccccc2)sc2cccc(OC)c21 | 6.5%
Cc1c(S(=O)(=O)NC(C)c2ccccc2)c(=O)n(C)c(=O)n1C (centres unmarked) | 11.2%
COc1ccc(/C=N/N2C(=O)CN(C(=O)c3ccccc3)C2c2ccc(OC)cc2)cc1 (centres unmarked) | -4.19%
CCn1c(SCC(=O)N/N=C/C(C)=C/c2ccco2)nnc1-c1ccccc1 | -55.1%

SMILES | hERG current change (%, negative = inhibition) at 10uM
Cc1ccc(NC(=O)C2C3C=CC4(O3)C2C(=O)N(CCCN2CCCC(C)C2)C4C(=O)NC2CCCCC2)cc1 (centres unmarked) | 9.43%
CCN(CC)CCN(CC(=O)Nc1c(C)cc(C)cc1C)C(=O)c1ccccc1.O=C(O)/C=C/C(=O)O | -22.5%
COc1ccc(-c2[nH]ncc2CNC(C)CCn2cccn2)c(F)c1 (centres unmarked) | -15.4%
CCOC(=O)C1(Cc2ccccc2)CCN(Cc2cn(CC(=O)OC)c3ccccc23)CC1 | -78.1%
O=C(O)COc1ccc(NC(=O)c2ccc3c(c2)C(=O)N(C2CCCCC2)C3=O)cc1 | 21.9%
CCOc1cc(C(N)=O)cc(Cl)c1OCC | 15.7%
COc1cc(C(=O)NCCC(=O)NCCc2ccc(Cl)cc2)cc(OC)c1OC | 4.56%
CC(OC(=O)C1CCN(c2ccc(C(F)(F)F)cn2)CC1)C(=O)c1ccccc1 (centres unmarked) | 4.99%
FC(F)(F)c1ccccc1C1=CC(c2ccccc2)n2ncnc2N1 (centres unmarked) | -19.7%
O=C(NCCCN1CCOCC1)C(C(=O)c1ccccc1)n1ccccc1=O (centres unmarked) | 20.2%
CC(C)CNC(=O)CN1C(=O)NC(Cc2c[nH]c3ccccc23)C1=O (centres unmarked) | 13%
Cc1cc(C)c(S(=O)(=O)NCC(=O)NCc2ccco2)c(C)c1 | -4.65%
Cc1cc(Cl)nc(Cl)c1C(=O)N1CCOCC1 | -47.4%
COc1ccc(-c2ccc(-c3nnn(CC(C)=O)n3)cc2)cc1 | 4.44%
CCOC(=O)c1cnc2ccc(Cl)cc2c1N1CCN(C)CC1 | -22.1%
CC(C)c1nc2cc3ccccc3cc2[nH]1 | -2.75%
Cc1occc1-c1nnc(SCC(=O)N2CCN(c3ccccc3F)CC2)n1C | 4.99%
CCOc1ccccc1CN1CCN(CC2CC2)CC1CCO (centres unmarked) | -2.67%
Cc1cc(/C=N/NC(=O)c2cc3ccccc3o2)c(C)n1C | 4.78%
CC(C)OC(=O)CSc1nnc(-c2ccccn2)n1-c1ccccc1 | -0.417%
Cc1ccc(S(=O)(=O)Nc2ccc(-n3cnnn3)cc2)c(C)c1 | -32%
CC1(C)CCC(=O)C=C1Nc1ccc(F)c(Cl)c1 | 7.56%
COc1cc(NC(=O)C2CCCO2)c(OC)cc1Cl (centres unmarked) | 3.32%

SMILES | hERG current change (%, negative = inhibition) at 10uM
O=C(CCc1ccc(O)cc1)N1C[C@H]2C[C@@H](C1)c1cccc(=O)n1C2 | 8.85%
O=C(Cc1cccs1)NC1CCCC1 | 16.2%
COCc1nnc(NS(=O)(=O)c2ccc([N+](=O)[O-])cc2)s1 | 11.2%
Cc1sc2nc(CN(Cc3cccs3)C(=O)NC3CCCCC3)[nH]c(=O)c2c1C | -0.79%
CC(C)NC(=S)NC(=O)c1ccc(Cl)cc1Cl | 6.37%
COc1ccc(C2SCC(=O)Nc3c2c(C)nn3-c2ccccc2)cc1OC (centres unmarked) | 9.04%
NS(=O)(=O)c1ccc(NC(=S)N2CCc3ccccc32)cc1 | 19.6%
CCOc1ccc(Oc2ccccc2NC(=O)C2=COCCO2)cc1 | -22.2%
NS(=O)(=O)c1ccc(CCNC(=O)CNC(=O)c2ccccc2F)cc1 | 15.9%
CCOC(=O)N(C)c1ccc(C(O)(C(=O)OC)C(F)(F)F)cc1 (centres unmarked) | 3.91%
Cc1ccc2cc(C)c(SCC(=O)NCC3CCCO3)nc2c1 (centres unmarked) | 14.4%
O=C(Nc1nsc(-c2ccccc2)n1)c1ccncc1 | 3.75%
S=C(Nc1ccc2cn[nH]c2c1)Nc1ccc(Cl)cc1Cl | 1.4%
CCNC(=S)N1CCN(c2nc(-c3ccc(F)cc3)cs2)CC1 | 13.3%
Cc1ccccc1OCC(=O)N/N=C/c1sc(=O)n(Cc2cccc(C(=O)O)c2)c1Cl | 7.97%
Cc1ccc(C)c(-n2c(CNC(=O)c3ccco3)nnc2SCC(=O)Nc2nnc(C)s2)c1 | 20.4%
CS(=O)(=O)N(CC(=O)N1CCCCCC1)c1ccc(Br)cc1 | -3.33%
COc1ccc(S(=O)(=O)N2CCC(C(=O)NCCC(=O)Nc3ccc(Cl)cc3)CC2)cc1 | -1.39%
O=C(NCc1cccc(Cl)c1)C1CCCO1 (centres unmarked) | 12.9%
CCOC(=O)C1CCN(C/C=C/c2ccccc2[N+](=O)[O-])CC1 | -70.2%
O=C(NC(=O)c1cccc(F)c1)OC[C@@H]1CCCN2CCCC[C@H]12 | -36.7%
O=C(NCCCN1CCN(c2ccc(F)cc2)CC1)NC12CC3CC(CC(C3)C1)C2 | -73.2%
CN(C)CCN=Cc1c(O)n(Cc2ccc3c(c2)OCO3)c(=O)c2ccccc12 | -13.8%

SMILES | hERG current change (%, negative = inhibition) at 10uM
O=C(Nc1ccccc1N1CCCC1)c1cccnc1 | -0.385%
COc1ccc(CCn2c(C)cc(C(=O)CN3C(=O)C(=O)N(Cc4ccco4)C3=O)c2C)cc1 | 1.28%
Cc1ccc(C)c(CNC(=O)Nc2ccccc2)c1 | 29.5%
CCOC(=O)C1=C(CS(=O)(=O)c2ccc(C)c(C)c2)NC(=O)NC1c1ccc(O)cc1 (centres unmarked) | 7.63%
CCOC(=O)CSCC(=O)Nc1cc(C)ccc1C | 0.851%
COc1ccc(OC)c(S(=O)(=O)N2CCC3(CC2)OCCN3S(=O)(=O)c2ccccc2)c1 | -12.3%
Cc1ccc(C(=O)N2CCN3C(=O)c4ccccc4C23c2ccc(Cl)cc2)cc1 (centres unmarked) | -18.4%
Cc1nnc(SCC(=O)N2CCN(C(=O)c3ccco3)CC2)n1C | 4.11%
Cc1cc(=O)oc2cc(OCC(=O)Nc3ccc4[nH]c(=O)[nH]c4c3)ccc12 | 22.7%
CS(=O)(=O)c1ccc([C@@H](O)[C@@H](CO)NC(=O)C(Cl)Cl)cc1 | 4.8%
CCOc1ccc(N(CC(=O)NC2CC3CCC2C3)S(=O)(=O)c2ccccc2)cc1 (centres unmarked) | 29.3%
Cc1ccc2nc(N/C(N)=N/S(=O)(=O)c3ccc([N+](=O)[O-])cc3)nc(C)c2c1 | -11.6%
O=C(Cn1nc(C(=O)O)c2ccccc2c1=O)NCCC1=CCCCC1 | 5.39%
COc1cccc2c1NC(C(=O)O)C1CC=CC21 (centres unmarked) | -10.5%
N=c1c(C(=O)NC2CCCC2)cc2c(=O)n3ccccc3nc2n1CC1CCCO1 (centres unmarked) | -83.7%
COc1ccc(-n2nc([N+](=O)[O-])c(=NCCC3=CCCCC3)n2O)cc1 | -11.6%
COC(=O)CCCC1=CC2=C(c3ccccc3)C(=O)C(C)(OC(=O)C3CCCC3)C(=O)C2=CN1C(CO)CO (centres unmarked) | 11.2%
c1cncc(-c2nc(N3CCOCC3)c3ccccc3n2)c1 | -17%
COc1ccc(OC)c(C(=O)N2CCC(CCC(=O)NC3CC3)CC2)c1 | 13.1%
COc1ccccc1-c1cc(C(F)(F)F)nc(N2CCN(c3ccc(F)cc3)CC2)n1 | 23.7%
